Experimental findings from US20130059385A1, “METHODS OF GENERATING PLURIPOTENT STEM CELLS” (THE SCRIPPS RESEARCH INSTITUTE, priority 2010, published 2013) are described below.

The structures appear in SMILES notation.

This assay deals with OG2 MEFs transduced with Oct4 and Klf4. Put plainly: Reprogramming of MEFs transduced by Oct4 and Klf4 only (GFP-positive iPS colonies). The class given is cell-based, mouse. Particulars: 10 μM CHIR99021, 4-5 weeks after Oct4/Klf4 transduction, average. The text has this:
FIG. 2. […] Scale bars, 20μm.
Cell Culture and Viral Transduction: MEFs were derived from 12952/SvPasCrlf and ROSA26^+/−/OG2^+/− mice according to the protocol reported on WiCell Research Institute website: “Introduction to human embryonic stem cell culture methods”. ROSA26^+/−/OG2^+/− transgenic mice carry GFP reporter gene under the control of the Oct4 promoter (Oct4-GFP) and the ubiquitously expressed neo/lacZ transgene [Do J T, Scholer H R, Stem Cells, 22:941-949 (2004)]. Animal experiments were performed according to the Animal Protection Guidelines of the Max Planck Institute for Biomolecular Research, Germany. […] MEFs transduced with Oct4/Klf4/Sox2 (1×10^4 cells/well together with 10^5 cells/well CF1 feeders in 6-well plates) were then treated with GSK-3 inhibitor CHIR99021 (Stemgent) for two weeks, and EGFP positive colonies were picked up at the third week after treatment. MEFs transduced with Oct4/Klf4 (1×10^5 cells/well in 6-well plates) were treated with 10 μM CHIR99021 for four weeks, GFP positive colonies were picked up and expanded at the fourth to fifth week after treatment.

In the case of `Cc1c[nH]c(-c2cnc(NCCNc3ccc(C#N)cn3)nc2-c2ccc(Cl)cc2Cl)n1` [CHIR99021], the “GFP positive colonies out of 10^5 OG2 MEFs” value is on record as “about six”.
